The data set concerns ATP. Nature of the data set: switch fluorescence ratio, 500 uM ATP over buffer (Cy3 cluster intensity, sum of 5 cycles each) (fold (ratio)); higher = stronger signal-on switching upon ATP binding; sequences stand for … in TCGTCGGCAGCGTCAGATGTGTATAAGAGACAGTTTTTTTTTTTTTTTTTTTTTTTTT…TC. The settings on record: aptamer strand: ATP DNA aptamer (quencher-CACCTGGGGGAGTATTGCGGAGGAAGG + anchor), 100 nM annealed; ATP concentration: 500 uM; one replicate. The method, boiled down:
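Cy3-labelled switching-strand clusters on a modified Illumina MiSeq flow-cell were annealed to 100 nM quencher-labelled ATP aptamer and imaged first in selection buffer, then after 15 min with 500 uM ATP at 22 °C. NaOH stripping and re-annealing separated each of five buffer/ATP cycles, and clusters outside 100-1000 RFU were excluded. The fluorescence ratio sums target-cycle Cy3 intensity over buffer-cycle Cy3 intensity per cluster and averages it per switch-domain sequence.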

Values marked as one replicate rest on one cluster of the flow cell; about a third of the high ones do not repeat.
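Further: ATP exposure 15 min at 22 °C before imaging.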

For ATTCAGAGTA, the switch fluorescence ratio was 0.969.
For TCGGGACCT the value was 1.03; for TCTCATGGGA, 0.986; for ATAGTACACC, 1.07.
For TGGGCATGGG the value was 1.01; for CTGACGAGAC, 4.26.
Take ACGAACCATA: the switch fluorescence ratio was found to be 1.23.
TGGGAGCTGG: the switch fluorescence ratio is 1.09.
Regarding GCCATACGGG, the switch fluorescence ratio was 1.04.
The value for GGATTAGATA was 0.967; that for AAGATCTAAT was 0.994; that for CTCAAGCGGA was 1.41.
As to CGTGCTGCTG, the switch fluorescence ratio was determined as 0.908.
For GTGCTAATAA the value was 1.02; for AATTGAATCG, 1.12.
Regarding TCGAGGAGCC, the switch fluorescence ratio came out at 1.02.
The value for CTAAAGTCTG was 0.957; that for CGTGTATCTG was 1.03.
The value for CTGGAGTACA was 1.64; that for TTCTGGGAT was 1.01; that for CTATCACGT was 0.979.
Consider CGATTGGCTT, for which the switch fluorescence ratio was determined as 1.02.
In the case of TGCAGAATCC, the switch fluorescence ratio was determined as 1.03.
The value for ACAAAGGTAC was 1.08; that for ACTCTGGGGA was 0.991.
As to TGGCATATAC, the switch fluorescence ratio amounted to 1.8.
The value for CAAGCTGGGC was 0.952; that for GATAGACCGA was 1.01; that for AAAGAATTAC was 1.12.
The value for TGCATCGATT was 1.02.
Regarding ATTGCAAATA, the switch fluorescence ratio stood at 0.99.
The value for GATCCCCACT was 1.07; that for GCATTCAAG was 0.986.
The value for CTCTATGACT was 1.01; that for ACTGTGGGCT was 1.01; that for AGCCGGTCAT was 0.98.
For CGTGATAGCG the value was 1.04; for CGGACCGGAT, 1; for TTAACCGGTC, 1.05.
Turning to AGCGACTTTG, the switch fluorescence ratio came to 1.04.
For GAGGGCTGTG the value was 1.03.
As for GATACTTCCG, the switch fluorescence ratio amounted to 1.19.
Regarding CTCGGAACAC, the switch fluorescence ratio worked out at 2.47.
The value for GATATGTTGC was 0.972; that for TTGGGCAAGC was 1.11; that for TAGACCCG was 1.04.
For CAATATAGTT the value was 0.955.
Take TTCCGCATGT: the switch fluorescence ratio amounted to 4.78.
Consider TACCATTCTG, for which the switch fluorescence ratio was 0.992.
Regarding CGCTGTCGCG, the switch fluorescence ratio is 0.97.
The value for CTCAGACGAC was 1.42; that for AAGGCTCTAT was 0.957; that for GCAGTGTGAC was 1.05.
The value for ACTTGCGATT was 1.03; that for TATCTGAGGT was 1.
For ATTGTAGTTC the value was 0.978; for TTGATCCGCA, 3.68.
On to GCCGCCCAGG, for which the switch fluorescence ratio came to 2.64.
For AAGTAAGAGA the value was 1.01.
The value for TGTTTCTGT was 0.998; that for TGGCCAGGG was 1.
For TAGCCTGTAT the value was 0.994; for CTTAAAGGT, 0.982.
TCCTTAAATG: the switch fluorescence ratio was determined as 0.981.
For CAACTTCCTC the value was 2.88; for TGCTTGCCCA, 1.01.
Turning to TTCGGTTAAG, the switch fluorescence ratio amounted to 1.
For CGGTTATACC the value was 0.95; for GACCATATGT, 0.955.
Take TATCAAGGCG: the switch fluorescence ratio turned out to be 0.982.
The value for CCGTCTGGCC was 1.05.
For CCCCAAGTTT the value was 1.03; for TGTTAGCACA, 1.02.
For the sequence ACAGGTTGGC, the switch fluorescence ratio turned out to be 0.952.
In the case of GATGTTGCAG, the switch fluorescence ratio was 0.912.
For AGAGAGTTAA the value was 1.02.
For CAGGTGGATT the value was 1.54.
Regarding TTCGCAAAAT, the switch fluorescence ratio is 1.66.
In the case of GGGCTTATCG, the switch fluorescence ratio is 0.997.
TTCTAGTGCT: the switch fluorescence ratio amounted to 0.996.
For GGGAGCGGCT the value was 0.961; for GGATACCAAA, 0.976.
The value for TTGTAGCGCA was 1.03; that for TTGCACTCGG was 1.
As for GGGTAGTCCA, the switch fluorescence ratio is 1.02.
The value for AATATGCCTG was 0.959.
With GGGGCAACGC, the switch fluorescence ratio amounted to 0.977.
TTCGCATTGG: the switch fluorescence ratio amounted to 1.84.
Regarding AGCCATTGTA, the switch fluorescence ratio worked out at 1.01.
For CAACGAAGGT the value was 1.01.
Regarding GGACTGTAAT, the switch fluorescence ratio came out at 1.13.
For ATCTGCAGTT, the switch fluorescence ratio worked out at 1.07.
The value for CTATCACTCC was 1.16.
Consider TACGTTCGAA, for which the switch fluorescence ratio amounted to 0.975.
For TCGTTGCTGT the value was 0.997; for TATAATTGCT, 1.02; for CTTCCGGTT, 1.14.
For TTAAGGGCGT the value was 1.02; for AACAATGACT, 1.09.
For CTTGAGAACG, the switch fluorescence ratio came out at 1.03.
The value for ATTTGTTTGA was 0.945; that for GGTGTGTTAT was 0.988; that for AAGGTGAGTA was 0.97.
TCGGTGATAG: the switch fluorescence ratio stood at 1.05.
TGATTAGGAA: the switch fluorescence ratio was 1.02.
The value for GTTGGGGTCT was 0.995; that for GCAGCCTATT was 1.38; that for ATGATTGTCT was 1.05.
For GAGAATGGGA, the switch fluorescence ratio came to 0.985.
In the case of GGACTTTCTC, the switch fluorescence ratio was found to be 1.07.
For the sequence AAACTTTGAC, the switch fluorescence ratio came to 1.05.
With TAACATTGA, the switch fluorescence ratio stood at 1.04.
For the sequence ATATAGGTAA, the switch fluorescence ratio came out at 0.961.
The value for GCAGTCACGG was 1.04; that for GAACTTAGTA was 1.03; that for TTGTGGGACG was 1.
The value for ATTTTCCCCG was 1.14.
For ATATGTGCTC the value was 0.988; for TCAGAGCGGT, 1.02; for GGATCAGGTC, 0.99.
